Results taken from PubChem BioAssay AID1745853 (National Center for Advancing Translational Sciences (NCATS), 2022).
“And” between values parts separate entries of the source, which are not always exact repeats. Equal values may be shown once. Some of the results follow. The main result of the screen is listed elsewhere. These columns were measured beside it and carry no call.

Legend:
Experiment in all cases: Primary Screen for Target Class Profiling of Small Molecule Inhibitors of Methyltransferases
[1] = biological target: Glycine N-methyltransferase (Homo sapiens) (UniProt Q14749); conditions: purified enzyme, MTase-Glo SAH luminescence; measured here: GNMT inhibition; at 40 µM; stronger effect = lower value
In short: (§1)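 Each enzyme was assayed with SAM and its substrate. SAH formation detected by MTase-Glo luminescence; single-point 40 uM screen[…].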

[2] = biological target: Guanidinoacetate N-methyltransferase (Homo sapiens) (UniProt Q14353); conditions: purified enzyme, MTase-Glo SAH luminescence; measured here: GAMT inhibition; at 40 µM; stronger effect = lower value
In short: as §1

[3] = biological target: Histamine N-methyltransferase (Homo sapiens) (UniProt P50135); conditions: purified enzyme, MTase-Glo SAH luminescence; measured here: HNMT inhibition; at 40 µM; stronger effect = lower value
In short: as §1

[4] = biological target: Nicotinamide N-methyltransferase (Homo sapiens) (UniProt P40261); conditions: purified enzyme, MTase-Glo SAH luminescence; measured here: NNMT inhibition; at 40 µM; stronger effect = lower value
In short: as §1

[5] = biological target: Phenylethanolamine N-methyltransferase (Homo sapiens) (UniProt P11086); conditions: purified enzyme, MTase-Glo SAH luminescence; measured here: PNMT inhibition; at 40 µM; stronger effect = lower value
In short: as §1
% is set by controls: 0 for no effect and ±100 for the full control effect.

SMILES | activity change, negative = inhibition [1] | activity change, negative = inhibition [2] | activity change, negative = inhibition [3] | activity change, negative = inhibition [4] | activity change, negative = inhibition [5]
CCC1c2cccn2-c2ccccc2CN1C(=O)Nc1ccc(Br)c(C)c1 (stereo not given) | -0.155% | 1.15% | 0.28% | -4.34% | 0.245%
O=C(Nc1nccs1)[C@H]1CN2CC[C@H]1C[C@@H]2Cn1cc(C2(O)CCCCC2)nn1 | -2.15% | -2.44% | -1.18% | -3.99% | -2.57%
COCCCNC(=O)N1Cc2ccccc2-n2cccc2C1c1ccc(Cl)cc1 (stereo not given) | -2.57% | 4.09% | 0.403% | -10.3% | 1.57%
COc1ccc(C2c3cccn3-c3ccccc3CN2C(=O)NC(C)C)cc1OC (stereo not given) | 7.05% | 0% | -3.77% | 2.16% | 5.48%
NC(=O)CN1CCCC1=O | -5.64% | 1.86% | -0.763% | -2.72% | 6.42%
CN[C@H]1[C@H](O)[C@H](O[C@@H]2[C@@H](O)[C@H](O[C@H]3O[C@H]([C@H](C)O)[C@@H](O)[C@H](O)[C@H]3N)[C@@H](N)C[C@H]2N)OC[C@@]1(C)O | 3.71% | 3.27% | 6.09% | -7.48% | 1.66%
C=C(C)[C@H]1O[C@H]2CC[C@@]3(C)[C@@](O)(CC[C@H]4[C@@H]5OC(C)(C)[C@H]6C[C@@H]7C(=C)Cc8c(Cl)cc9[nH]c(c5c9c8[C@@]76O)[C@@]43C)[C@]23O[C@@H]3[C@H]1O | 5.57% | 10.8% | 8.42% | -2.01% | 3.23%
CCOc1ccc(C2c3cccn3-c3ccccc3CN2C(=O)Nc2ccccc2)cc1 (stereo not given) | -4.82% | -0.719% | -4.85% | -6.45% | -2.23%
Cc1ccc(NC(=O)N2Cc3ccccc3-n3cccc3C2C)c(C)c1 (stereo not given) | 6.93% | 0% | 2.77% | 0.421% | 4.68%
COc1cccc(CN2CCCCCCNC(=O)[C@@H]3CCC[C@@H]32)n1 | -6.78% | -3.02% | -12.5% | -6.85% | -1.68%
CCC1NC(=O)C2C(Cl)C(Cl)CN2C(=O)C(C(C)O)NC(=O)CC(c2ccccc2)NC(=O)C(CO)NC1=O (stereo not given) | 5.59% | 3.45% | 11.3% | -8.76% | 4.61%
Cc1ccc(NC(=O)N2Cc3ccccc3-n3cccc3C2C)cc1C (stereo not given) | 7.69% | 1.01% | 10.8% | 5.61% | 7.51%
CCC1c2cccn2-c2ccccc2CN1C(=O)Nc1ccccc1C(F)(F)F (stereo not given) | -9.63% | 1.11% | -4.44% | -6.88% | -1.2%
CCCNC(=O)N1Cc2ccccc2-n2cccc2C1c1ccc(CC)cc1 (stereo not given) | 9.27% | 3.84% | 4.88% | -6.68% | 4.68%
COc1ccc(C2c3cccn3-c3ccccc3CN2C(=O)CCC(=O)NC2CCCCC2)cc1 (stereo not given) | -5.71% | 4.51% | -2.27% | -3.77% | -2.94%
COC[C@H]1C[C@@H](NCc2cn(C)c3ccccc23)[C@H](O)[C@@H]1O | -4.17% | -9.89% | -3.05% | -14.8% | -14.9%
O=C(Nc1cc(F)ccc1F)N1Cc2ccccc2-n2cccc2C1c1cc(F)cc(F)c1 (stereo not given) | 11.5% | 0.079% | 6.95% | 3.86% | 8.07%
C[C@@H]1O[C@@H](OC2CCC3(C=O)C(CCC4C3CCC3(C)C(C5=CC(=O)OC5)C(O)CC43O)C2)[C@H](O)[C@H](O)[C@H]1O[C@@H]1O[C@H](CO)[C@@H](O)[C@H](O)[C@H]1O (stereo not given in full) | 0% | 8.06% | 6.89% | -4.89% | 5.32%

SMILES | activity change, negative = inhibition [1] | activity change, negative = inhibition [2] | activity change, negative = inhibition [3] | activity change, negative = inhibition [4] | activity change, negative = inhibition [5]
COc1ccc(NC(=O)N2Cc3ccccc3-n3cccc3C2c2cccc(C)c2)cc1OC (stereo not given) | 6.48% | 0% | -0.172% | -1.98% | 4.1%
Cc1ncc2c(n1)C[C@@H]1CC[C@H]2N1C(=O)C1(c2ccccc2)CC1 | -1.56% | -4.1% | -0.366% | -6.84% | 1.2%
CCCCCCCCCCCCCC(=O)O[C@@H]1[C@@H](C)[C@@]2(O)[C@@H](C=C(CO)C[C@@]3(O)C(=O)C(C)=C[C@@H]23)C2C(C)(C)[C@@]21OC(C)=O (stereo not given in full) | -6.39% | 0.463% | -1.8% | -12.4% | 1.88%
COc1ccccc1-c1cc([C@H]2CN3CC[C@H]2C[C@@H]3CNS(=O)(=O)c2ccccc2)n(C)n1 | -7.19% | -1.29% | -4.48% | -9.83% | -1.95%
Cc1ccc([C@@H]2CN(C(=O)c3ccco3)[C@@H]3C4CCN(CC4)[C@@H]32)cc1 | -6.51% | -8.14% | -2.9% | -15.9% | -1.38%
Cc1ccc(NC(=O)N2Cc3ccccc3-n3cccc3C2c2ccc(Cl)cc2)cc1C (stereo not given) | 0% | 0% | 1.38% | 2.73% | 4.58%
CN(C)c1ccc(C2c3cccn3-c3ccccc3CN2C(=O)Nc2ccc(F)cc2F)cc1 (stereo not given) | 4.17% | 0% | -10% | -4.58% | 1.44%
CCOc1ccccc1NC(=O)N1Cc2ccccc2-n2cccc2C1c1ccccc1Cl (stereo not given) | 9.11% | 0% | 4.22% | 0.217% | 5.64%
CSc1ccc(C2c3cccn3-c3ccccc3CN2C(=O)NCc2ccc(C)cc2)cc1 (stereo not given) | -0.618% | 0% | -0.121% | 7.07% | 7.16%
COc1ccc(C2c3cccn3-c3ccccc3CN2C(=O)NCCc2ccccc2)cc1OC (stereo not given) | 10.2% | 0% | 1.42% | 6.49% | 7.38%
CCC1c2cccn2-c2ccccc2CN1C(=O)Nc1cc(Cl)ccc1C(=O)OC (stereo not given) | -3.61% | 0% | 3.28% | 3% | 4.97%
CC1c2cccn2-c2ccccc2CN1C(=O)Nc1ccc(Br)cc1F (stereo not given) | 7.31% | 3.28% | -2.08% | -5.91% | 1.08%
COc1ccc(C2c3cccn3-c3ccccc3CN2C(=O)Nc2ccccc2F)cc1 (stereo not given) | 4.15% | 0% | -2.86% | -6.31% | 1.47%
O=C(Nc1cc(F)ccc1F)N1Cc2ccccc2-n2cccc2C1c1cccs1 (stereo not given) | 6.68% | 0% | 3.28% | 0.974% | 6.67%
COC(=O)c1ccccc1NC(=O)N1Cc2ccccc2-n2cccc2C1c1ccc(SC)cc1 (stereo not given) | 1.28% | 5.1% | 8.23% | 7.49% | 7.72%
Cc1c(N2C(=O)[C@@H]3[C@H](O)CCN3C2=O)ccc(C#N)c1Cl | 4.42% | 8.48% | 10.5% | -6.4% | 3.82%
Cc1ccc(NC(=O)N2Cc3ccccc3-n3cccc3C2c2cccs2)c(C)c1 (stereo not given) | 3.61% | 0% | -0.634% | -1.29% | 2.23%
S=C(NC1CCCCC1)N1CCC(c2cnc[nH]2)CC1 | 1.11% and 0.866% | 6.38% and 11.3% | 9.66% and 21.1% | -7.75% and -4.37% | -1.31% and 0.99%
